Among the test systems are CCRF-CEM leukemia; HOP-92 NSCLC; NCI-H226 lung; NCI-H23 lung; SR leukemia; UACC-257 melanoma.
Test in all cases: NCI anticancer screen, dose series, 48 h

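Assay format: 96-well plates, 48-hour exposure. At the GI50, growth is halved. TGI is the concentration that stops growth completely.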 Calls of active or inactive are those of the source.

On to `Cc1cccc(Oc2nccc(-c3c(-c4ccc(F)cc4)ncn3C3CCNCC3)n2)c1C`, for which the GI50 entry in the assay on CCRF-CEM leukemia, in the assay with HOP-92 NSCLC, in the assay with NCI-H226 lung, with NCI-H23 lung, in the assay on SR leukemia and with UACC-257 melanoma was “inactive” in each case. The TGI in the assay on CCRF-CEM leukemia is 20.7 µM; in the assay with HOP-92 NSCLC, 13 µM; in the assay with NCI-H226 lung, 23.1 µM; with NCI-H23 lung, > 25 µM; in the assay on SR leukemia, 14.6 µM; with UACC-257 melanoma, 8.77 µM.

These data come from PubChem BioAssay (NCI).
